Experimental data reported in publication PMC2243016.
Results are given in words; binding and its absence hold for the method and conditions named. Binding seen in cells or lysates may run through a third protein. Some binding calls cover weakened binding; strength is not graded here. For some of these results: Tags and fused reporters may be left off the sequences shown. Each block holds one binder with its values, some of them ahead of it.

Assays:
[1] = biological target: T1, GST-C1/324 (amino-terminal half of Corto) (Drosophila melanogaster) (UniProt P41046); experiment: pull-down; GST-Corto fusion proteins on beads, in vitro translated 35S-CycG, autoradiography; only the target purified
T1 sequence: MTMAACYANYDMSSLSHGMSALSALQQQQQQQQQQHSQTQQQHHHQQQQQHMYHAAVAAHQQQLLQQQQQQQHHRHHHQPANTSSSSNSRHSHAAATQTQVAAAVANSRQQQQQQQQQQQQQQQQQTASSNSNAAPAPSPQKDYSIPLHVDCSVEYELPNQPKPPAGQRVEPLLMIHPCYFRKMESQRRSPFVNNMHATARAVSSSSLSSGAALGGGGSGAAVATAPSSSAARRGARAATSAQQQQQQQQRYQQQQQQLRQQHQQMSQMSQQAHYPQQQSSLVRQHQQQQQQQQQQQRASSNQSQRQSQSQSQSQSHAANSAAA

[2] = biological target: T2, GST-Corto (full-length protein) (Drosophila melanogaster) (UniProt P41046); experiment: as above
T2 sequence: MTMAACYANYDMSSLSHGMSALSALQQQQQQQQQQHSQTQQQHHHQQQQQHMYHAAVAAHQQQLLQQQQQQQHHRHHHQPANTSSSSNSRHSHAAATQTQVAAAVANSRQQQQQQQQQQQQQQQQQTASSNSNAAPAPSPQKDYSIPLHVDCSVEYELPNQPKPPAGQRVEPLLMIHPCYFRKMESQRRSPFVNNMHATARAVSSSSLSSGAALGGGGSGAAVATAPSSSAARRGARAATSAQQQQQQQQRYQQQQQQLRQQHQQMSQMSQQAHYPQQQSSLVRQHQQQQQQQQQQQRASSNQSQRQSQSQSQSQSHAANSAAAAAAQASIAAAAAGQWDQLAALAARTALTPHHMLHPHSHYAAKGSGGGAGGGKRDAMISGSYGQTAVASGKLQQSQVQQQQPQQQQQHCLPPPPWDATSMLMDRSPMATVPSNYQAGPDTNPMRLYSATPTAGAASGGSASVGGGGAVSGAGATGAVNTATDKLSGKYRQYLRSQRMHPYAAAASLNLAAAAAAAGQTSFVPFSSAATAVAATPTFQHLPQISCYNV

[3] = biological target: T3, Corto (endogenous, 70 kDa) (Drosophila melanogaster (endogenous in w1118 embryos)) (UniProt P41046); experiment: co-IP; total extract of 0-14 h w1118 embryos in RIPA buffer, IP with rabbit anti-Corto (mock: preimmune serum), overnight at 4°C, blot with rat anti-CycG
T3 sequence: T2 sequence

[4] = biological target: T4, Corto-Flag (Drosophila melanogaster) (UniProt P41046); experiment: co-IP; S2 cells co-transfected with pAct::Corto-Flag and pAct::Myc-CycG, extract in RIPA buffer, IP with anti-Flag or anti-Myc (mock: anti-HA), blot with anti-Myc or anti-Flag
T4 sequence: T2 sequence

[5] = biological target: T5, GST-CycG (full-length CycG protein) (Drosophila melanogaster) (UniProt Q95TJ9); experiment: pull-down; GST-CycG fusion proteins on beads, in vitro translated 35S-Corto, autoradiography; only the target purified
T5 sequence: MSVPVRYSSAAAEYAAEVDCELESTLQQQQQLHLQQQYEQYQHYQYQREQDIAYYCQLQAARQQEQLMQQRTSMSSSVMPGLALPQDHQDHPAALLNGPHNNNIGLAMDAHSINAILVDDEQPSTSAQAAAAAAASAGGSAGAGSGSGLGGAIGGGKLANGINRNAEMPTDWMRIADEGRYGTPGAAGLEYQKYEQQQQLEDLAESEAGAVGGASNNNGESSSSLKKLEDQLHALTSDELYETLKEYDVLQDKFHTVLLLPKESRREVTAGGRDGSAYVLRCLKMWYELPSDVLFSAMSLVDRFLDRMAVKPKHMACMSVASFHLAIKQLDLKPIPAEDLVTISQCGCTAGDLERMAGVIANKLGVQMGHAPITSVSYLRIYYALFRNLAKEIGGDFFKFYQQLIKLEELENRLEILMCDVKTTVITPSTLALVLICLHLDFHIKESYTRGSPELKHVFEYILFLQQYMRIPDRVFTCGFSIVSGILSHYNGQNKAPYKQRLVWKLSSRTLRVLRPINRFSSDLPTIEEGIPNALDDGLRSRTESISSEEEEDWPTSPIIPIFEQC

[6] = biological target: T6, GST-CycG-215/566 (Drosophila melanogaster) (UniProt Q95TJ9); experiment: as above
T6 sequence: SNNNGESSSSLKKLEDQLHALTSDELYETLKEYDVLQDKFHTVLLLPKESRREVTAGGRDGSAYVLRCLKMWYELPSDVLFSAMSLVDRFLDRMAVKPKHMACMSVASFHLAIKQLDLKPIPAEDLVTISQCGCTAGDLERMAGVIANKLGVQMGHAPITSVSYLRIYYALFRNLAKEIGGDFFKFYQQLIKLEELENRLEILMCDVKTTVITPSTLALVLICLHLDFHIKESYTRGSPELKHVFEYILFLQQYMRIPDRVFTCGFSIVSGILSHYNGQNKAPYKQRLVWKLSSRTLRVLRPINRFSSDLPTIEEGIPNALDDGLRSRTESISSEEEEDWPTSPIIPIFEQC

[7] = biological target: T7, Myc-CycG (Drosophila melanogaster) (UniProt Q95TJ9); experiment: co-IP; S2 cells co-transfected with pAct::Corto-Flag and pAct::Myc-CycG, extract in RIPA buffer, IP with anti-Flag or anti-Myc (mock: anti-HA), blot with anti-Myc or anti-Flag
T7 sequence: T5 sequence

binding [1]: binds | binding [2]: binds
B1: In vitro translated CycG protein (35S-labelled) (protein, UniProt Q95TJ9 1-566)
chain: T5 sequence
modifications: 35S label

binding [3]: binds
B2: CycG, 68 kDa isoform (endogenous) (protein, UniProt Q95TJ9 1-566)
chain: T5 sequence

binding [4]: binds
B3: Myc-CycG (protein, UniProt Q95TJ9 1-566)
chain: T5 sequence

binding [5]: binds | binding [6]: no binding
B4: In vitro translated Corto protein (35S-labelled) (protein, UniProt P41046 1-550)
chain: T2 sequence
modifications: 35S label

binding [7]: binds
B5: Corto-Flag (protein, UniProt P41046 1-550)
chain: T2 sequence
